Experimental findings from the supplement of paper PMC11417369 are described below.

The other results are listed elsewhere or left out.

The assay concerns PfAP2-HC AP2 domain (GST-tagged). In words: gcPBM binding intensity (ln(normalized median fluorescence intensity)); higher = stronger DNA binding. In short, it runs like this:
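An Agilent 4 × 180k array carrying primer-extended double-stranded 36-bp intergenic genomic probes and negative controls received GST-tagged P. falciparum DNA-binding domains expressed in E. coli, about 25 μg on average, for 1 h. The binding buffer contained 1× PBS, 1% milk, 0.2 mg/ml BSA, 0.5% salmon testes DNA and 0.03% Triton X-100. Binding intensity is the top Masliner-normalised natural-log median intensity across replicate spots of either probe orientation, read after Alexa488 anti-GST antibody staining and a 488 nm scan.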
In the case of “ATCAACAAAACATACACACACATATAGATTTATATA [CACACA_site7415]”, the “gcPBM binding intensity (ln)” value is 10.2.

In the case of “AAAAAAAAAAAACACACACACATATATATATATATA [CACACA_site732]”, the “gcPBM binding intensity (ln)” value came to 11.1.

Take “TTATGTAAAATCGATACATGCATTAATCATTTTATA [TGCATGCA_site493]”: the “gcPBM binding intensity (ln)” value amounted to 9.57.

Turning to “TCATATTTCCATAGGAGTACATAAAAAAAATAATAT [XGTACX_site7601]”, the “gcPBM binding intensity (ln)” value is 9.57.

In the case of “TATGATATGTTATACACACACGTATTTATGAATTGA [CACACA_site7591]”, the “gcPBM binding intensity (ln)” value is 9.89.

With AAAATGTAGAAATGGGTGCACACACATATATAATAT, the “gcPBM binding intensity (ln)” value worked out at 10.4.

For “TATATATATAAAAGTTGTACAGTGTTTTATATAGTT [XGTACX_site7085]”, the “gcPBM binding intensity (ln)” value was determined as 9.69.

Turning to “AATTAGCTATTTAAAAATATATAAAATTTATATATA [CACACA_negctrl_site390]”, the “gcPBM binding intensity (ln)” value is 9.36.

Regarding “GAAATAGAGAGACACACACACATATATTTATGTATT [CACACA_site7794]”, the “gcPBM binding intensity (ln)” value worked out at 10.4.

For the sequence “ATCATATTGAATATTTAACACACATTTCGCTTAATT [CACACA_site8652]”, the “gcPBM binding intensity (ln)” value came out at 9.8.

With “TAATGCATTATTAGAATACACACCATACGCATATTT [CACACA_site289]”, the “gcPBM binding intensity (ln)” value was 9.77.

Turning to “TGATGTTGTAACAAAAGTACACACACATTTCTATAA [XGTACX_site5837]”, the “gcPBM binding intensity (ln)” value stood at 9.96.

For “TTTTCAATTAATAATACACACATGTATATATCATTA [CACACA_site7539]”, the “gcPBM binding intensity (ln)” value amounted to 9.75.

Regarding “TTTTTCTTTTGATGTTGTACATATATATTATATATA [XGTACX_site2754]”, the “gcPBM binding intensity (ln)” value came to 9.72.

For “AACTGTACAATTTTTGTGCACAATAATTATTAATAT [GTGCAC_site9462]”, the “gcPBM binding intensity (ln)” value amounted to 9.64.

“TGCTATATAATATGAGCACACATAAGATTTGGTGTT [CACACA_site8148]”: the “gcPBM binding intensity (ln)” value worked out at 9.66.

Regarding “ATATTTTTATTTAAACGTACATACACGTTGAAAAGA [XGTACX_site4567]”, the “gcPBM binding intensity (ln)” value worked out at 9.43.

On to “AACTATAAAAAAAATACACACATTACCAAAAATATA [CACACA_site1529]”, for which the “gcPBM binding intensity (ln)” value was 10.2.

Consider “AATCTGATTTGTATATGTACACAAATATTTTTATTT [XGTACX_site5295]”, for which the “gcPBM binding intensity (ln)” value came to 9.9.

Regarding “TTTAATAATTATTAAAGTACAAAATAAATATTGAAT [XGTACX_site7538]”, the “gcPBM binding intensity (ln)” value came out at 9.68.

Consider “TATAAAAAAATATATATATATATATATATATAAATA [TGCATGCA_negctrl_site22]”, for which the “gcPBM binding intensity (ln)” value is 9.45.

For the sequence “AAGAAAAAAAAAAAAAATATATATATAAGAACATAT [TGCATGCA_negctrl_site131]”, the “gcPBM binding intensity (ln)” value stood at 9.71.

As for “GATAAAACGTTATGCACACGTACGTGGGTATTTATA [CACACA_site4954]”, the “gcPBM binding intensity (ln)” value was found to be 10.1.

As to “AAAAAAAAAAAATACACACACACATATTTATTTATA [CACACA_site6483]”, the “gcPBM binding intensity (ln)” value came to 10.6.

Take “AAAAAAAAAAATAAATGTACAAAATAATGGGGAACA [XGTACX_site8723]”: the “gcPBM binding intensity (ln)” value turned out to be 9.96.

Take “GTGAATGATTTAAGTACACACCGGTATTTATTCAAA [CACACA_site4950]”: the “gcPBM binding intensity (ln)” value was determined as 9.66.

As for “ATATATATATATATATGTACATATTTTATTTAATTT [XGTACX_site1807]”, the “gcPBM binding intensity (ln)” value turned out to be 9.85.

As for TGTATTAAAAATTTGGTGCAACTTTTACATAATAAT, the “gcPBM binding intensity (ln)” value stood at 9.66.

As to “TTTTTTTTTTTTTTTTGTACGAATAAACAAGTTATT [XGTACX_site5473]”, the “gcPBM binding intensity (ln)” value came to 9.16.

For the sequence “AATATTTATATTAACTGTACAGAAAATATCTTTGCT [XGTACX_site8130]”, the “gcPBM binding intensity (ln)” value came out at 9.62.

On to “TTCTTTTTTTTTTTTTCATGTATATTAAACTTTTCA [TGCATGCA_negctrl_site592]”, for which the “gcPBM binding intensity (ln)” value amounted to 9.66.

For “GATATATAAATTGACACACACATATATACCTATATA [CACACA_site6689]”, the “gcPBM binding intensity (ln)” value is 10.3.

On to “CATAAGATTTTTACATGTACATATTTATAATATATT [XGTACX_site6578]”, for which the “gcPBM binding intensity (ln)” value came to 9.87.

Consider “AATATAAAAATGTTTACACACACACCGAAATATATT [CACACA_site8800]”, for which the “gcPBM binding intensity (ln)” value was found to be 11.2.

“TATGCCATGGCATAATGTACATAAGTGACCTCATAA [XGTACX_site1294]”: the “gcPBM binding intensity (ln)” value was determined as 9.56.

In the case of “GATTCGATCTATATATGTACACATAAATATTTTTTG [XGTACX_site7015]”, the “gcPBM binding intensity (ln)” value was determined as 9.7.

In the case of “TATATATTTATTTATTGTACACTCTTTAAGAATACA [XGTACX_site2569]”, the “gcPBM binding intensity (ln)” value was found to be 9.6.

Consider “TATATATATATATATATATATATATATGTGTATGTA [TGCATGCA_negctrl_site255]”, for which the “gcPBM binding intensity (ln)” value amounted to 10.3.

For the sequence ATACACAAGAATATGTTGCACTTTTATATTCGTATG, the “gcPBM binding intensity (ln)” value stood at 9.79.

Consider “AATAAAATTGACCATTCACACAAGAAAAATTAATCA [CACACA_site5636]”, for which the “gcPBM binding intensity (ln)” value came out at 9.7.

As to “AAAAGAATTAATTTATGTACTAATTTCAAGAAATAA [XGTACX_site3241]”, the “gcPBM binding intensity (ln)” value stood at 9.35.

In the case of “TCCTTACACACACTTTTTTTTTTTTTTTTTTCTACA [GTGCAC_negctrl_site263]”, the “gcPBM binding intensity (ln)” value was determined as 9.93.

Turning to “ATATATTATCAACTTACACACAGAAAACTATAATAA [CACACA_site6275]”, the “gcPBM binding intensity (ln)” value was determined as 9.87.

For “CTTTTTCCTTTATAAAGTACTTAAAATATTTAGATA [XGTACX_site4259]”, the “gcPBM binding intensity (ln)” value stood at 9.32.
